From publication PMC7960550
Results are given in words; binding and its absence hold for the method and conditions named. Binding seen in cells or lysates may run through a third protein. Some binding calls cover weakened binding; strength is not graded here.

By UniProt entry, the sequences of proteins in these tests, tags left out.
UniProt Q93009: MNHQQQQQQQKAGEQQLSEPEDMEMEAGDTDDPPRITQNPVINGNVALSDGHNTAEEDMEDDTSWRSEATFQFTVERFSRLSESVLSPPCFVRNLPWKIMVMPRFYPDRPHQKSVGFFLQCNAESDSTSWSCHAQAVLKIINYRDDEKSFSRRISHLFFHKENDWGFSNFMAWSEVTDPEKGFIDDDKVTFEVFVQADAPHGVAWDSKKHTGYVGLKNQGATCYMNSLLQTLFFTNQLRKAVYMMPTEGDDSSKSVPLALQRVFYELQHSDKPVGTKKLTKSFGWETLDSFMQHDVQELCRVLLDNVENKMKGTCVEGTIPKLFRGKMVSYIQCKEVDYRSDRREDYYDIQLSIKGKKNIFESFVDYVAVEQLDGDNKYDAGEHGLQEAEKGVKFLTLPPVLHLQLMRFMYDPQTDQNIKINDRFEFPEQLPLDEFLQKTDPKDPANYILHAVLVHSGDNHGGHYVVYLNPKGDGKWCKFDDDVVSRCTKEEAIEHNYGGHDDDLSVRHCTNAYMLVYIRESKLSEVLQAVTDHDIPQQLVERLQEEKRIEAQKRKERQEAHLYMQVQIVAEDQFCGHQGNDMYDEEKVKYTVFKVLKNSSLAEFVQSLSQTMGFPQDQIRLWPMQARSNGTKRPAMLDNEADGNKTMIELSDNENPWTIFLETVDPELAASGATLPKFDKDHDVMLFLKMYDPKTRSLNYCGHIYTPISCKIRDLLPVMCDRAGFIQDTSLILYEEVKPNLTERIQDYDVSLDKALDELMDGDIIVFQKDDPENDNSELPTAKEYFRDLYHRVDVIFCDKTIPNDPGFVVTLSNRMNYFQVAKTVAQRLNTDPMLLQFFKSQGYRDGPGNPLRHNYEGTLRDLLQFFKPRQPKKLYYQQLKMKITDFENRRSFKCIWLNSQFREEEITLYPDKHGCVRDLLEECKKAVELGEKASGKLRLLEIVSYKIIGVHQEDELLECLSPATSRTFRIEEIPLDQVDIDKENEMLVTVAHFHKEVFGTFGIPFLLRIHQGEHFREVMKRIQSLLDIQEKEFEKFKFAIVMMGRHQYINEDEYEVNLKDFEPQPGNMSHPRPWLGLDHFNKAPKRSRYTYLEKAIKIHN
UniProt P51784: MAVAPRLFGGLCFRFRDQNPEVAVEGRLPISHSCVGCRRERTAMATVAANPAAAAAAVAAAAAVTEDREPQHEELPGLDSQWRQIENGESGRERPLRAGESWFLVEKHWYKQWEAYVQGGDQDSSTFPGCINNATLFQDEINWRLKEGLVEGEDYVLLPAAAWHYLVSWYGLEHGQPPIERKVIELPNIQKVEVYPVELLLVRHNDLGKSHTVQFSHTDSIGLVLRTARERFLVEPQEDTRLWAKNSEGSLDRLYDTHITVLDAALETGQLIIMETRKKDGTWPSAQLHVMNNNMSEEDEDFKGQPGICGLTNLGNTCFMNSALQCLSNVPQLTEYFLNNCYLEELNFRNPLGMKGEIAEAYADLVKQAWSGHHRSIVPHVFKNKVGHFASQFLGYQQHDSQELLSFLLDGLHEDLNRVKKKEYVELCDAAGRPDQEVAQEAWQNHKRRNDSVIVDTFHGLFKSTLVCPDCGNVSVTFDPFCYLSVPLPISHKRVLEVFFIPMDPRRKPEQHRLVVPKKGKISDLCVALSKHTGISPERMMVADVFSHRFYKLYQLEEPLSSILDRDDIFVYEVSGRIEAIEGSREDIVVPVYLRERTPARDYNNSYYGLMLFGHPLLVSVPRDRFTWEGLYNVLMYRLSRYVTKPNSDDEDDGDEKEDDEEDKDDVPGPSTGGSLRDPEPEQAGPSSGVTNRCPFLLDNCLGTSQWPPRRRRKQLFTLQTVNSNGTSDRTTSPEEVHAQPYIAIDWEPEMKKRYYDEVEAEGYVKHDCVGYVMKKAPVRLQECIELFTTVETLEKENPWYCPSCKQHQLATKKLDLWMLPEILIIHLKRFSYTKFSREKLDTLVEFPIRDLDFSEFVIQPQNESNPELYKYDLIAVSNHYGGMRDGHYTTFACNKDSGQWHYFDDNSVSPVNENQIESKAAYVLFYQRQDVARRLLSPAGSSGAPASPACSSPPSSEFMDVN

Assays:
Assay in all cases: co-IP; HEK 293T cells transfected with SFB-tagged (and Myc-tagged) constructs, 24 h; lysed in NETN buffer; S-protein agarose beads overnight at 4 °C; western blot; SFB-SPRTN with USP11 also after 20 μM VP16 for 4 h, CPT, formaldehyde or hydroxyurea (slight increase)
[1] = target: T1, SFB-SPRTN full-length (FL) (UniProt Q9H040)
T1 sequence: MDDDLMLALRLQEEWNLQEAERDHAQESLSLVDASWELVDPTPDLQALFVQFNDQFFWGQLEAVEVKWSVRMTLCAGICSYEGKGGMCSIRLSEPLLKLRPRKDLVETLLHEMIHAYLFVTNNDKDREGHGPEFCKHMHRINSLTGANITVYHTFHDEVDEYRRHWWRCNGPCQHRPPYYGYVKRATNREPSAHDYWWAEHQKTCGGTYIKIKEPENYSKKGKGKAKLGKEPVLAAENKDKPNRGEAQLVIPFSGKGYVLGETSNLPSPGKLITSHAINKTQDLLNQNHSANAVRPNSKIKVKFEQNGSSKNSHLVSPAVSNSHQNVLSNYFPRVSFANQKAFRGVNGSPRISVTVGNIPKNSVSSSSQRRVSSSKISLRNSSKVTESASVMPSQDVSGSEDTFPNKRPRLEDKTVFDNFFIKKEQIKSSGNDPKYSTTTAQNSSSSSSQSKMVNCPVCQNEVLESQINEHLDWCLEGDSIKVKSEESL

SFB-USP7 = SFB-USP7 (UniProt Q93009)
[2] = target: T2, SFB-SPRTN with deletion of the 186 to 212 aa fragment (UniProt Q9H040)
T2 sequence: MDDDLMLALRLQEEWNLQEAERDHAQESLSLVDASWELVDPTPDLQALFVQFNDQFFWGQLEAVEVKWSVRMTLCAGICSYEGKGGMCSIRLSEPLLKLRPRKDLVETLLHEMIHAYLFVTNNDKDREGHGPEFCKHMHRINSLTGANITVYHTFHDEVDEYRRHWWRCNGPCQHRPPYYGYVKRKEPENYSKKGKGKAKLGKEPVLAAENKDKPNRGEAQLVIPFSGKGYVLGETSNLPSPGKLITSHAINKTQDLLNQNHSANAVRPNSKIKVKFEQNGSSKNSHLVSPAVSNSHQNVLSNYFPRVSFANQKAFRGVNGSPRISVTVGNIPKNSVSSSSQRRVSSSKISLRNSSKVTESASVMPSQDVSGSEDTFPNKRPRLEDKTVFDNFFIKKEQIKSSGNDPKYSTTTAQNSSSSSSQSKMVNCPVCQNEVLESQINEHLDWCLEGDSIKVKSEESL

[3] = target: T3, SFB-SPRTN with deletion of the 129 to 212 aa region (UniProt Q9H040)
T3 sequence: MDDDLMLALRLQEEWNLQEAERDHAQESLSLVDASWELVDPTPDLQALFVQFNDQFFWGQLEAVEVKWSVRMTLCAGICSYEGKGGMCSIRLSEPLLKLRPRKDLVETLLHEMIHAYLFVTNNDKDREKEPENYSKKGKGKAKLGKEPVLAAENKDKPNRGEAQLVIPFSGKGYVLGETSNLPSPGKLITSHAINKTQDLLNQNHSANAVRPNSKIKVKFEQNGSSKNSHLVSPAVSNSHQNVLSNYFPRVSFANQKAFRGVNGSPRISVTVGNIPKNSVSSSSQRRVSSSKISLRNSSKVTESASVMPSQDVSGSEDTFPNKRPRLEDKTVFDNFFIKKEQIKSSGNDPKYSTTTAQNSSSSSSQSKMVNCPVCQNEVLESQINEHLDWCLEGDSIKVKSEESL

| Substance | binding [1] | binding (SFB-USP7) | binding [2] | binding [3] |
| --- | --- | --- | --- | --- |
| Myc-USP11 full-length (FL) (from UniProt P51784 1-963) | binds |  |  |  |
| Endogenous USP11 (from UniProt P51784 1-963) | binds | binds | binds | no binding |
